In PubChem BioAssay AID1963576 (National Center for Advancing Translational Sciences (NCATS), 2024):
About 60 (0.1%) of roughly 46,000 compounds were called active. Roughly 3% stayed inconclusive and do not appear here. Calls follow the shape of the dose curve; as a rule, active = well fitted inhibition curve with a large enough effect; inconclusive = small, poorly fitted or top-dose-only effect; inactive = no such curve, though single readings can be large or run the other way. The list shows a part of the results.

Test: Primary qHTS assay for Inhibitors of ovarian cancer metastasis using an organotypic tumor microenvironment (TME) model. Also: nearly all actives have a fitted effect of over 65% in size.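 As to activity change, negative = inhibition: plate controls were DMSO wells for no effect and tomatine positive control wells for full effect.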
Conditions: SKOV3ip1-GFP adhesion/invasion on 3D omental model, fluorescence; series mostly up to 45.8 µM; activity change, negative = inhibition: at the top concentration
In short: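 Primary human omental fibroblast/mesothelial 3D culture pre-formed 48 h. SKOV3ip1-GFP cells added with compounds (0.36-46 umol/L), incubated 2 h RT/16 h 37 C, fixed; GFP cells quantified at 488/509 nm.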

Activity change, negative = inhibition, inactive:
COc1cccc(NC(=O)c2nnn(Cc3cccc(C(F)(F)F)c3)c2N)c1 9.68%, CCN(CC)S(=O)(=O)c1ccc(NC(=O)[C@H](CCSC)N2Cc3ccccc3C2=O)cc1 7.08%, Cc1ccc(S(=O)(=O)c2nnn3c2nc(N2CCCCC2)c2sccc23)cc1 0.614%, Cc1c(C(=O)NN2CCCCC2)nn(-c2ccc(Cl)cc2Cl)c1-c1ccc(Cl)cc1 -5.08%, CCc1nc(SCc2cc(=O)c3cc(F)ccc3[nH]2)n[nH]1 -5.82%, NC(=O)Cn1c(=O)n(-c2ccc(F)c(Cl)c2)c(=O)c2sc3ccccc3c21 6.77%, Cc1ccc(N2CCN(c3cc(C)nc4c(-c5ccc(Cl)cc5)c(C)nn34)CC2C)cc1 (stereo unspecified) -9.68%, Cc1cccc(Cn2c(-c3cccs3)nc3ccccc32)c1 -0.358%, CC(=O)c1cccc(NC(=O)CN2C(=O)CN(C)C(=O)c3ccccc32)c1 -2.35%, Cc1cc(C)cc(N(C)S(=O)(=O)c2nnc(NC(=O)COc3ccc(Cl)cc3)s2)c1 -6.06%, Cc1ccc(C)c2sc(N3CCN(C(=O)c4ccco4)CC3)nc12 0.205%, Cc1cc2nc(-c3cccc(NC(=O)COc4ccc(C(C)C)cc4)c3)oc2cc1C -2.38%, COc1ccc(N2CCN(C(=O)c3c(C)oc4nc(C)nc(N5CCCC5)c34)CC2)cc1 19.1%, Cc1nc2c([nH]1)CCN(C(=O)c1ccc(NC(=O)c3ccccc3-c3ccccc3)cc1)c1ccccc1-2 -9.49%, Cc1ccccc1-c1nnc(SCC(=O)N2CCCc3ccccc32)o1 -3.33%, COc1ccc(-c2nc(C)c(CCNC(=O)c3cccs3)s2)cc1 -5.39%, O=C1c2ccccc2C(=O)C1(c1ccccc1)N1CCN(c2cccc(C(F)(F)F)c2)CC1 -19.9%, CC(C)c1ccc(N2C(=O)CSC23C(=O)N(Cc2ccccc2F)c2ccccc23)cc1 (stereo unspecified) -3.35%, Cc1ccc(NC(=O)N2CCC(CN3CCCCCC3)CC2)c(Cl)c1 2.76%, Cc1nc(-c2ccc(S(=O)(=O)Nc3ccc(OC(F)(F)F)cc3)cc2)co1 13.3%, CCCNC(=O)c1c(NC(=O)c2ccccc2F)sc2c1CCCCC2 17.1%, COc1cccc(-n2c(=O)c3sccc3n(Cc3cc(=O)n4cc(Cl)ccc4n3)c2=O)c1 0.927%, CCC(=O)N1CCc2cc(S(=O)(=O)NCCC(=O)NCc3ccc(OC)cc3)ccc21 6.18%, COc1ccc(Cl)cc1NC(=O)c1cc2ccccn2n1 3.76%, COc1cc2c(cc1OC)CC(=O)N(CCCN(C)C[C@H]1Cc3cc(OC)c(OC)cc31)CC2 -3.17%, Cc1ccc(-c2nc(CCNC(=O)C(=O)Nc3ccc(F)cc3F)cs2)cc1 -10.6%, Cc1ccc(-c2nc3sc(CCNC(=O)c4ccco4)c(C)n3n2)cc1 7.91%, Fc1ccc(C(c2nnc(-c3ccccc3)o2)N2CCN(c3ccccc3)CC2)c(Cl)c1 (stereo unspecified) -17.3%, COc1ccccc1NCc1nnc2n1CCCCC2 -15.2%, Cc1ccc2c(c1)N(CC(=O)NCCCN1CCCCC1)C(=O)c1cccnc1O2 -1.68%, CCCOC(=O)c1c(NC(=O)c2cc3nc(-c4ccc(OC)cc4)cc(C(F)(F)F)n3n2)sc2c1CCCC2 13.3%, COc1cccc(NC(=O)CSc2c(C)cnc3c2c(=O)n(C)c(=O)n3C)c1 -2.08%, CCOc1ccc(N2CC(NC(=O)c3cc4ccccc4o3)CC2=O)cc1 (stereo unspecified) -10.9%, COc1cc([C@@H]2c3cc4c(cc3[C@H](O)[C@H]3COC(=O)[C@@H]23)OCO4)cc(OC)c1OC 25.9%, CCOc1ccc(S(=O)(=O)N(C(C)=O)c2ccc3oc(C)c(C(=O)OC)c3c2)cc1 -20.2%, COc1cc(Cl)c(C)cc1NC(=O)c1nn(-c2ccc(C)cc2)c(=O)n(C)c1=O 2.84%, COc1ccccc1N1CCN(C(=O)c2cnn(C(C)(C)C)c2C2CCN(C(=O)OC(C)(C)C)CC2)CC1 -1.82%, CCCC(=O)Nc1cccc(-c2nc3ncccc3o2)c1 -8.73%, COc1ccc2oc(=O)c(C(=O)N3CCN(c4cc(Cl)ccc4Cl)CC3)cc2c1 1.6%, CCOC(=O)c1ccc(NC(=O)C(=O)NCCc2ccc(OC)cc2)cc1 -0.0558%, CN1CCN(C(=O)C(=O)Nc2c3c(nn2-c2cccc(Cl)c2)CSC3)CC1 2.69%, CCCCOC(=O)Cn1nnc2sc(-c3ccccc3)cc2c1=O -6.69%, O=C(CSc1ncc(-c2ccccc2)[nH]1)Nc1ccc(F)cc1F 2.76%, COc1ccc(Nc2cc(C(=O)NCc3cccs3)c3ccccc3n2)cc1 0.191%, CCOc1ccc(C2=C(C(=O)CC)Sc3nncn3N2C(=O)CC)cc1 -19.2%, COC(=O)c1c(SC)nc2ccccc2c1OCc1ccc(C)cc1 2.99%, CCc1ccccc1N1C(=O)N(CC(=O)c2ccc(Cl)cc2)c2ccccc2S1(=O)=O 1.77%, Cc1ccc(Cn2c(=O)n(CCc3ccccc3)c(=O)c3c(C)c(C)sc32)cc1 -3.23%, CCOC(=O)c1c(C)[nH]c(C)c1S(=O)(=O)N1CCCC(C(=O)NCc2ccc(C)cc2)C1 (stereo unspecified) 16.6%, Clc1ccc(C(Cn2ccnc2)OCc2ccsc2Cl)c(Cl)c1 (stereo unspecified) -5.3%, COc1cc(C(=O)N2CCC(N3CCN(C)CC3)CC2)ccc1Nc1ncc2c(n1)N(C)c1ccccc1C(=O)N2C 10.8%, CCCCn1cc(S(=O)(=O)c2ccc(Cl)cc2)c(=O)c2cc(F)c(N3CCCC(C)C3)cc21 (stereo unspecified) -6.62%, CCOC(=O)c1cc(S(=O)(=O)N2CCN(c3cccc(OC)c3)CC2)[nH]n1 1.75%, CCOC(=O)Cn1c(=O)oc2cc(S(=O)(=O)N3CCCC(C)C3)ccc21 (stereo unspecified) 14%, CCc1cnc2c(c1SCC(=O)Nc1ccc(OC)c(OC)c1)c(=O)n(C)c(=O)n2C 2.78%, CC1CCCN(C(=O)CCS(=O)(=O)c2cc3c(cc2Cl)NC(=O)CO3)C1 (stereo unspecified) 60.1%, CCOc1ccc(CNC(=O)Cn2cc3c(n2)-c2c(oc(C(=O)N4CCCC4)c2C)CC3)cc1 -2.45%, CC(=O)N1c2c(cc(Br)cc2S(=O)(=O)Nc2ccc(OC(F)(F)F)cc2)CC1C (stereo unspecified) 14.8%, COc1ccc(NC(=O)NCc2c(-n3cccc3)sc3c2CCCC3)c(OC)c1 1.51%, COc1ccccc1CN(Cc1ccco1)c1cnc(S(C)(=O)=O)nc1C(=O)Nc1ccccc1Cl -1.04%, CCOc1ccc(CCNC(=O)CCCc2nnc3n(C)c(=O)c4sccc4n23)cc1OCC 2.87%, CCOC(=O)c1noc2ncn(Cc3cccc(C#N)c3)c(=O)c12 -3.45%, Cc1cc(Cl)ccc1NC(=O)CN1C(=O)COc2ccc(S(=O)(=O)N3CCC(C)CC3)cc21 -25.8%, O=C(CCCn1c(=O)[nH]c2ccsc2c1=O)N1CCN(c2cccc(C(F)(F)F)c2)CC1 17.5%, CCOC(=O)Cc1ccc(NC(=O)N(C(C)C)C2CCN(C(C)=O)CC2)cc1 -7.61%, COc1ccc(NCc2cc3cc4c(cc3n(CC(=O)Nc3ccccc3)c2=O)OCO4)cc1 3.94%, Cc1ccc(-c2cc(C(=O)Nc3c(C(=O)c4ccc(C)c(F)c4)oc4ccccc34)no2)cc1 4.78%, CCOCCc1nn2c(=O)cc(COC(=O)c3cccc(C)c3)nc2s1 -9.85%, Cc1ccc(Cn2c(CN3CCC(C(=O)NCC(C)c4ccccc4)CC3)cc3ccccc32)cc1 (stereo unspecified) -5.01%

outcome, inactive:
CCn1ccc2cc(S(=O)(=O)N3CCCN(C(=O)Nc4ccc(C)cc4)CC3)ccc21, Cn1c(=O)c2c(nc(SCC(=O)Nc3ccc(F)cc3)n2Cc2ccc(Cl)cc2)n(C)c1=O, CCOc1ccc(Cn2c(CNS(=O)(=O)c3cccs3)nc3cccnc32)cc1, CCOc1ccc(NC(=O)c2ccc3c(c2)c(C)c(C)n3Cc2ccc(F)cc2)cc1, Cc1ccc(NC(=O)Cn2ncc3c4ccccc4n(Cc4ccccc4)c3c2=O)cc1Cl, Cc1cn2c(=O)c(S(=O)(=O)NC(C)c3ccccc3)c(C)nc2s1 (stereo unspecified), Cc1ccc(N(C)S(=O)(=O)c2c(-c3ccccc3)csc2C(=O)O)cc1, CC(C)Oc1ccc(CNS(=O)(=O)c2csc(C(N)=O)c2)cc1, CCOc1ccccc1NC(=O)CCc1nc(-c2cccc(C)c2)no1, Cc1cccc(C(=O)OCc2cc(=O)n3nc(C4CC4)sc3n2)c1, Cc1ccc(-c2nc(C(=O)Nc3cccc(C#N)c3)c3n2CCCCC3)cc1, Cc1nc2nncn2c(Nc2ccc(F)cc2)c1C, Cc1ccc(C(=O)Nc2cc3cc(Cl)ccc3oc2=O)cc1, CC(C)C(=O)Nc1c(C(=O)N2CCN(c3ccccc3F)CC2)oc2ccccc12, COc1ccccc1CNC(=O)CCCN1C(=O)CCn2nc(-c3cn(C)c4ccccc34)cc21, Cc1ccc(CSc2nc3ccncc3n2Cc2nc(-c3ccc(Cl)cc3)oc2C)cc1, COc1ccc(CCNC(=O)CSc2cn(CCNC(=O)c3ccccc3F)c3ccccc23)cc1OC, O=C(CCCCn1c(=O)c2ccccc2n(CC(=O)Nc2ccc(F)cc2F)c1=O)NCc1ccccc1Cl, O=C(NCc1ccc(Cl)cc1)c1ccc2oc(=O)n(Cc3ccccc3)c2c1, COc1cccc(CNC(=O)Cn2nc3c(cc2=O)CCCC3)c1OC, CCCC1=Nc2cc(C(=O)NCC(C)c3ccccc3)ccc2Sc2ccccc21 (stereo unspecified), COc1ccc(OCC(=O)Nc2nc(-c3ccc(Br)cc3)ns2)cc1, CCc1cccc(C)c1NC(=O)NC1COc2ccccc2C1 (stereo unspecified), CCNc1nc(NC(C)CC)nc(Oc2ccc(OCC)nn2)n1 (stereo unspecified), Cc1c(C(=O)OC2CCC(C)CC2)[nH]c2c1C(=O)CC(c1ccccc1Cl)C2 (stereo unspecified), O=C(Nc1ccc(Cl)cc1)c1cc(S(=O)(=O)N2CCCc3ccccc32)ccc1F, CCOC(=O)c1c(NC(=O)CSc2cn(CCNC(=O)c3c(F)cccc3F)c3ccccc23)sc2c1CCCC2
